The source of these data is US20250066451A1 (SWEDISH ORPHAN BIOVITRUM AB PUBL, published 2025).

Residue numbers refer to the chain shown, from its start.

What is called Kd is the free concentration of one partner at which half of the binding sites on the other are occupied at equilibrium, for simple one-to-one binding. By EC50 is commonly meant the concentration giving half of the maximal effect. A high value points to a less potent agent.

To fix the notation:
T1: human IL-1R-I (RnD Systems cat. no. 269-1R/CF) (human, UniProt P14778 18-332, limits assumed)
T1 construct: bought protein; also called hIL-1R-I; hIL-1RI
T1 sequence (looked up): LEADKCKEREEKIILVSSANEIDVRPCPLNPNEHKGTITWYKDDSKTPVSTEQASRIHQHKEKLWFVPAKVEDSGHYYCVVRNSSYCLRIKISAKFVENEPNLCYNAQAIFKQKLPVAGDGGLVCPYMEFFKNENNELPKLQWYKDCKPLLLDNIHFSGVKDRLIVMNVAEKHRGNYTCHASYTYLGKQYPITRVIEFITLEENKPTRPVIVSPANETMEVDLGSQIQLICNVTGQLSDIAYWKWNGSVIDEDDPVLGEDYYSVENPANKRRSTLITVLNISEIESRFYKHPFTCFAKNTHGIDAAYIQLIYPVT

T2: Human IL-1R-I-Fc (Creative BioMart cat. no. IL1RI-771H) (human, UniProt P14778 18-332, limits assumed)
T2 construct: bought protein; also called hIL-1R-I-Fc; hIL-1RI-Fc
T2 sequence (looked up): T1 sequence (looked up)

B1: Z16023-ABD (designed binder)
chain: AQHDEALEVDAKYAKEVEEAQMEIFALPNLTRKQYTAFIRKLLDDPSQSSELLSEAKKLNDSQAPKVDYVLAEAKVLANRELDKYGVSDYYKNLINNAKTVEGVKALIDEILAALPYVPG
B2: Z16034-ABD (designed binder)
chain: B1 chain with A26E, L43F
B3: Z16050-ABD (designed binder)
chain: B1 chain with E19A, A26N, K33R
B4: Z16044-ABD (designed binder)
chain: B1 chain with E19R, A26N, L43F
B5: Z16063-ABD (designed binder)
chain: B1 chain with V17I, E19S, A26Y
B6: Z16041-ABD (designed binder)
chain: B1 chain with V17I, E19T, L43F
B7: Z16042-ABD (designed binder)
chain: B1 chain with E19D, A26G
B8: Z16037-ABD (designed binder)
chain: B1 chain with V17I, E19D, A26Q
B9: Z16054-ABD (designed binder)
chain: B1 chain with V17A, E19V, Q21Y, M22F, F25Y
B10: Z16040-ABD (designed binder)
chain: B1 chain with E18Q, E19D, A26E
B11: Z16056-ABD (designed binder)
chain: B1 chain with E19Q, A26G
B12: Z16028-ABD (designed binder)
chain: B1 chain with V17I, E18R, E19D, A26D, L43F
B13: Z15897-ABD (designed binder)
chain: B1 chain with V17T, E19N
B14: Z16062-ABD (designed binder)
chain: B1 chain with V17I, A26Y, L43F
B15: Z16035-ABD (designed binder)
chain: B1 chain with V17L
B16: Z16061-ABD (designed binder)
chain: B1 chain with V17I, E19A, A26Y
B17: Z16030-ABD (designed binder)
chain: B1 chain with E19Y
B18: Z16043-ABD (designed binder)
chain: B1 chain with V17T, A26R, K33R
B19: Z16055-ABD (designed binder)
chain: B1 chain with V17I, A26G
B20: Z16011-ABD (designed binder)
chain: B1 chain with V17I, E19V, L43F
B21: Z16027-ABD (designed binder)
chain: B1 chain with E18Y, E19Q, A26Y
B22: Z16046-ABD (designed binder)
chain: B1 chain with V17I, E18Y, E19S, A26K, L43F
B23: Z16032-ABD (designed binder)
chain: B1 chain with V17A, E19D, Q21Y, F25Y, A26E
B24: Z16038-ABD (designed binder)
chain: B1 chain with E19D, A26E, L43F
B25: Z16025-ABD (designed binder)
chain: B1 chain with E19V, Q21Y, F25Y, A26N
B26: Z15876-ABD (designed binder)
chain: B1 chain with V17I, E19A, A26G, L43F
B27: Z15840-ABD (designed binder)
chain: B1 chain with E19V
B28: Z16036-ABD (designed binder)
chain: B1 chain with E19T, A26E, L43F
B29: Z16026-ABD (designed binder)
chain: B1 chain with E19K, F25Y, A26Y, L43F
B30: Z16059-ABD (designed binder)
chain: B1 chain with V17T, E18Y, E19Y, A26S
B31: Z16029-ABD (designed binder)
chain: B1 chain with V17I, E19D, M22L
B32: Z16049-ABD (designed binder)
chain: B1 chain with E19Q, A26S
B33: Z16033-ABD (designed binder)
chain: B1 chain with V17I, E19D, Q21Y, F25Y, A26R, K33R
B34: Z15953-ABD (designed binder)
chain: B1 chain with V17T, E19K
B35: Z16045-ABD (designed binder)
chain: B1 chain with V17A, E19Y, K33R
B36: Z16051-ABD (designed binder)
chain: B1 chain with E19S
B37: Z16058-ABD (designed binder)
chain: B1 chain with A26K
B38: Z16065-ABD (designed binder)
chain: B1 chain with K33R
B39: Z16031-ABD (designed binder)
chain: B1 chain with V17A, E18Y, E19Y
B40: Z16053-ABD (designed binder)
chain: B1 chain with V17T, E19R
B41: Z16060-ABD (designed binder)
chain: B1 chain with F25Y, A26S, L43F
B42: Z16048-ABD (designed binder)
chain: B1 chain with V17I, F25Y, A26Y, L43F
B43: Z16052-ABD (designed binder)
chain: B1 chain with V17I, E19A, A26D, L43F
B44: Z15824-ABD (designed binder)
chain: B1 chain with V17I, L43F
B45: Z16039-ABD (designed binder)
chain: B1 chain with Q21Y, F25Y, A26H
B46: Z16047-ABD (designed binder)
chain: B1 chain with V17I, E19K, A26S
B47: Z16057-ABD (designed binder)
chain: B1 chain with V17A, A26T

The first assay addresses T1, human IL-1R-I (RnD Systems cat. no. …). In words: Biacore kinetic screening, Z-ABD captured on anti-ABD, 100 nM hIL-1R-I. A general note: SPR reads the build-up and loss of mass on a sensor chip optically.
B1 came in with a dissociation constant (Kd) of 9.2 nM.

Regarding B2, binding was characterised by a dissociation constant (Kd) of 9.1 nM.

As for B3, the Kd is 13 nM.

Regarding B4, the Kd turned out to be 17 nM.

For B5, binding was put at a Kd of 12 nM.

For B6, the Kd came out at 10 nM.

In turn, B7 had a Kd of 9.7 nM.

The molecule B8 displayed a Kd of 14 nM.

B9 gave a Kd of 29 nM.

B10 showed a Kd of 20 nM.

B11: the Kd amounted to 13 nM.

B12 returned a Kd of 19 nM.

As for B13, the affinity, expressed as Kd, was 12 nM.

Regarding B14, the dissociation constant (Kd) turned out to be 7.6 nM.

B15 registered a Kd of 17 nM.

Turning to B16, the Kd turned out to be 12 nM.

As for B17, binding was put at a Kd of 17 nM.

B18 registered a Kd of 8.3 nM.

In the case of B19, binding was characterised by a dissociation constant (Kd) of 12 nM.

B20 had a Kd of 11 nM.

B21: the Kd turned out to be 14 nM.

B22: the Kd was determined as 18 nM.

In turn, B23 had a Kd of 26 nM.

B24 returned a Kd of 8.9 nM.

In the case of B25, binding was characterised by a dissociation constant (Kd) of 19 nM.

In the case of B26, the dissociation constant Kd amounted to 8.3 nM.

On to B27, for which the Kd was 11 nM.

With B28, binding was put at a Kd of 11 nM.

On to B29, for which the Kd came out at 16 nM.

For the molecule B30, binding was characterised by a dissociation constant (Kd) of 16 nM.

On to B31, for which the Kd was 21 nM.

In turn, B32 gave a dissociation constant (Kd) of 14 nM.

As to B33, the Kd worked out at 19 nM.

B34 registered a Kd of 11 nM.

As to B35, binding was put at a Kd of 20 nM.

With B36, binding was characterised by a dissociation constant (Kd) of 15 nM.

For B37, binding was characterised by a dissociation constant (Kd) of 14 nM.

The molecule B38 registered a Kd of 7.8 nM.

B39 showed a Kd of 20 nM.

For the molecule B40, the Kd was determined as 11 nM.

For B41, the Kd worked out at 19 nM.

Molecule B42 registered a Kd of 11 nM.

With B43, the affinity, expressed as Kd, was 12 nM.

On to B44, for which the Kd was determined as 9.2 nM.

On to B45, for which the Kd worked out at 14 nM.

B46 had a Kd of 19 nM.

Molecule B47 showed a Kd of 33 nM.

The target in a further assay is T2, Human IL-1R-I-Fc (Creative BioMart cat. …). In words: ELISA, hIL-1R-I-Fc titration on Z-ABD. Background: An ELISA detects its analyte on a solid surface through an enzyme-linked reagent.
For B1, the EC50 is 0.21 nM.

As to B2, a half-maximal response (EC50) required 0.23 nM.

Molecule B3 returned an EC50 of 0.23 nM.

The molecule B6 showed an EC50 of 0.24 nM.

B7: the midpoint of the response, the EC50, lay at 0.24 nM.

On to B9, for which it took 0.24 nM to reach a half-maximal effect (EC50).

For the molecule B13, a half-maximal effect (EC50) was put at 0.25 nM.

In turn, B18 came in with an EC50 of 0.23 nM.

Molecule B20 yielded an EC50 of 0.22 nM.

Molecule B22 gave an EC50 of 0.27 nM.

On to B26, for which the EC50 worked out at 0.42 nM.

As to B27, the EC50 worked out at 0.25 nM.

B32 had an EC50 of 0.24 nM.

The molecule B34 yielded an EC50 of 0.21 nM.

The molecule B36 had an EC50 of 0.25 nM.

The molecule B37 yielded an EC50 of 0.23 nM.

In turn, B40 yielded an EC50 of 0.25 nM.

In turn, B42 registered an EC50 of 0.25 nM.

Turning to B44, the EC50 amounted to 0.23 nM.
